Measured values reported in paper PMC4336329 (PLoS ONE, 2015).
About 2,200 (0.71%) of roughly 310,000 compounds showed an effect of 50% or more. Effects have a minus sign here. Some of the results follow.

target: human ether-à-go-go-related gene (hERG) potassium channel (human, UniProt Q12809); assay: primary screen, population patch clamp on CHO cells stably expressing hERG
Sequence (Q12809 whole entry, looked up): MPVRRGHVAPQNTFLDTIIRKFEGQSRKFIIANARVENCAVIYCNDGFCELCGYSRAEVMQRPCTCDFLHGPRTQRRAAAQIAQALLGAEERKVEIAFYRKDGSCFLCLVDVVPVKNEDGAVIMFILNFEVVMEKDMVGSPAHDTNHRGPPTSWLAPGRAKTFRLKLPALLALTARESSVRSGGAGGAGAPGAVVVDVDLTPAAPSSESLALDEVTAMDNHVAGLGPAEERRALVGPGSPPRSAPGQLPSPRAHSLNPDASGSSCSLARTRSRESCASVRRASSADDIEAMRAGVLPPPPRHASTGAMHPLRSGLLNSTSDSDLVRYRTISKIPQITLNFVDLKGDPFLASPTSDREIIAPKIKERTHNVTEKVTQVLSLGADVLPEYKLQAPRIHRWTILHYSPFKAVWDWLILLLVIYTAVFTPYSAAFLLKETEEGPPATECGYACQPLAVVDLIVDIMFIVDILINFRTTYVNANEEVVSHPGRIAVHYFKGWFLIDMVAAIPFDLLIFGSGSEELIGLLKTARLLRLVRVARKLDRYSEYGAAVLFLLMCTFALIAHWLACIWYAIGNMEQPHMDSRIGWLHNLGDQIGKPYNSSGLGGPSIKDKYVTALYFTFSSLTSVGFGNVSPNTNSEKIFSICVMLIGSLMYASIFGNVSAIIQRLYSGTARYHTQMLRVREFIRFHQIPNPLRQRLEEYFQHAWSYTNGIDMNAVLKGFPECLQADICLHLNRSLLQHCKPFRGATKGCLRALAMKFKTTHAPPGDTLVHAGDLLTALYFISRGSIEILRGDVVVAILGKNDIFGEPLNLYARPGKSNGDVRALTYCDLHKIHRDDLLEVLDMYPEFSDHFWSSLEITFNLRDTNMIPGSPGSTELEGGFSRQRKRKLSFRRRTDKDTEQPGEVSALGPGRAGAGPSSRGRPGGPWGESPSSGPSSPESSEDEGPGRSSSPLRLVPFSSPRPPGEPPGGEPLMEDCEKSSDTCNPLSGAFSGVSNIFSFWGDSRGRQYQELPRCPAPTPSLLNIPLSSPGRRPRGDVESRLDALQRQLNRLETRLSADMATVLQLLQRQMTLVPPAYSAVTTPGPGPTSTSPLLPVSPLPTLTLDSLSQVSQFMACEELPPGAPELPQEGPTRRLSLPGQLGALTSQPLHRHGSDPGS

| Compound | hERG current change (%, negative = inhibition) at 1uM [%] |
| --- | --- |
| CC(C)(C)n1ncc2c(=O)n(CC(=O)N3CCCCCC3)cnc21 | 11.2 |
| CCC(C)(C)n1nnnc1C(c1cccs1)N1CCc2ccccc21 (centres unmarked) | 7.92 |
| CCN1C(=O)c2cccc3c(N)ccc1c23 | -2.01 |
| COc1ccc(OC)c2[nH]c(=O)c(CCNC(=O)c3cccs3)cc12 | -2.67 |
| COc1ccc(C(=O)NCc2ncccc2C)cc1OC1CCN(C(C)=O)CC1 | 15.7 |
| Cc1ccnc(NC(=O)CNC(=O)c2ccccc2)c1 | -2.38 |
| COc1ccc(CCCNC(=O)C2CCC(=O)N(CC3CCCCC3)C2)cc1 (centres unmarked) | 10.4 |
| C=CCNC(=S)N/N=C(\C)c1cccc(NC(C)=O)c1 | 11 |
| Cc1cc(=O)n2nc(N3CCCC(C(=O)NCCc4ccccc4)C3)sc2n1 (centres unmarked) | -2 |
| O=C(NCc1ccccc1)c1cc2nc(C3CC3)cc(C(F)(F)F)n2n1 | -1.13 |
| CC(C)C(NS(=O)(=O)c1cccc2nsnc12)C(=O)Nc1nc2ccc(Cl)cc2s1 (centres unmarked) | 12.8 |
| COCC(=O)NCCNc1nc2ccc(C)cc2cc1C | 1.14 |
| CCOc1ccc(C(=O)OC2CCN(C)CC2)cc1.Cl | -2.21 |
| Cn1c(=O)cc(OCCCC(=O)Nc2cccnc2)c2ccccc21 | 6.83 |
| Cc1c(N2C(=O)c3ccc(Br)cc3C2=O)c(=O)n(-c2ccccc2)n1C | 14.3 |
| O=C(N/N=C/c1cccc(O)c1)c1cc2c(ccc3ccccc32)o1 | 13 |
| COc1ccc(NC(=S)N2CCC(N(C)CC3CCCO3)CC2)cc1Cl (centres unmarked) | 1.77 |
| O=C(NC(=S)Nc1nc(-c2cccc([N+](=O)[O-])c2)cs1)c1cc(Cl)ccc1Cl | 10.8 |
| Cc1nn(-c2ccccc2)c(C)c1/C=N\N1CCN(c2ccc(Cl)cc2)CC1 | 3.06 |
| CCN(CC)C(=O)c1[nH]cnc1C(=O)NCC(=O)OCc1ccccc1 | 13.6 |
| CC(C)CN1C(=S)SC(C)(C)C1n1oc(=O)n(-c2ccccc2)c1=O (centres unmarked) | 12.9 |
| CC(C)OC(=O)C(NC(=O)c1ccccc1)=C1CCCCC1 | 13.5 |
| CC(C)c1nnc(NC(=O)CC23CC4CC(CC(C4)C2)C3)s1 | 6.98 |

| Compound | hERG current change (%, negative = inhibition) at 1uM [%] |
| --- | --- |
| COC(=O)c1cc(NCc2ccc3c(c2)OCO3)ccc1N1CCOCC1 | -6.45 |
| COc1ccc(CCNC(=O)CCc2ccsc2)cc1OC | 14.4 |
| CCCCn1c(SCC(=O)c2ccc(OC)cc2OC)nc2cc(S(N)(=O)=O)ccc21 | 11.7 |
| COc1cc2c(cc1OC)CN(Cc1ccccc1)CC2 | 13.6 |
| Cc1nc2sc(C(=O)OCC(=O)N3c4ccccc4CC3C)c(C)c2c(=O)[nH]1 (centres unmarked) | 12.5 |
| N#C/C(=C\c1c(N2CCCCCC2)nc2ccccn2c1=O)C(=O)NCc1ccco1 | 2.14 |
| O=C1Nc2ccc(C(F)(F)F)cc2N2CCCC12 (centres unmarked) | 12.8 |
| COc1ccccc1C(=O)N1CCN(C(=O)c2oc3ccc(C)cc3c2C)CC1 | 9.2 |
| N#Cc1ccc(N2CCNCC2)c(F)c1 | -2.47 |
| CCc1nc(NCCN2CCOCC2)c(C#N)c2c1CCCC2 | -19.7 |
| CCn1c(CSc2nc3ccccc3s2)nc2ccccc21 | 6.52 |
| CSc1nsc(SCC(=O)Nc2ccccc2C(=O)O)n1 | 10.5 |
| Cc1occc1C(=O)Nc1ccc2c(c1)OCCO2 | -8.12 |
| O=C(O)CC(=O)Nc1cc(Cl)ccc1O | 6.94 |
| Cc1nn(S(=O)(=O)N2CCCCC2)c(C)c1Br | 15.6 |
| OCC[C@@H]1C[C@H](O)[C@@H](O)[C@@]2(CCc3ccccc3O2)O1 | 14.4 |
| CC(=O)N/C(=N/c1nc(C)cc(C)n1)Nc1ccc(C)cc1C | 4.11 |
| C/C(=N\NC=O)c1ccncc1 | 3.11 |
| CC(C)(C)C(=O)C1=C(O)C(=O)N(Cc2ccccc2)C1c1ccccc1Cl (centres unmarked) | 12.4 |
| Cc1ccc(NC(=O)C2(NC(=O)c3cccc(N4C(=O)CSC4c4ccccc4)c3)CCCCC2)cc1 (centres unmarked) | 7.52 |
| CC(C)(C)c1ccc(C(=O)CSc2ncn[nH]2)cc1 | 6.35 |
| CC1(C)NC(=O)N(CC(=O)N2CCCC(C(F)(F)F)C2)C1=O (centres unmarked) | 5.97 |
| Cc1ccc(C)c(S(=O)(=O)c2c[nH]c(=S)[nH]c2=O)c1 | 8.25 |

| Compound | hERG current change (%, negative = inhibition) at 1uM [%] |
| --- | --- |
| CCOC(=O)c1c(C)c(C(=O)N2CCC3(CC2)OCCO3)c(C)n1CC | 15 |
| COc1ccc(NC(=S)NC(=O)CC(C)C)c(OC)c1 | 6.32 |
| CCOc1ccc(C2C3=C(Nc4nc(N)[nH]c(=O)c42)c2ccccc2C3=O)cc1 (centres unmarked) | -4.6 |
| CCCNC(=S)Nc1ccc(Cl)cc1C | 9.67 |
| Cc1ccc(-c2csc(NC(=O)c3cnccn3)n2)cc1C | 6.98 |
| O=C(Nc1ccc2c(c1)nc1n2CCSC1)c1ccccc1 | -6.73 |
| O=C(CSCc1ccc(F)cc1)Nc1ccccc1C(=O)N1CCOCC1 | 5.08 |
| Cc1cc(CN(C)C(=O)CC2C(=O)NCCN2Cc2c(F)cccc2Cl)n[nH]1 (centres unmarked) | 9.39 |
| CC(NC(=O)C1CCN(S(=O)(=O)c2cccs2)CC1)c1cccc(Cl)c1 (centres unmarked) | 2.19 |
| CCC(CC)C1C(C#N)=C(N)SC(N)=C1C#N | 8.44 |
| C[n+]1ccn(CC(=O)c2ccc(Br)cc2)c1.[Br-] | 5.11 |
| O=C(Cc1ccc(Cl)cc1)Nc1cccc2ncccc12 | 11.9 |
| CCC1(C(=O)O)NC(c2cc(OC)ccc2O)C2C(=O)N(Cc3ccccc3)C(=O)C21 (centres unmarked) | 11 |
| COc1cccc(C(=O)Oc2cc(-c3ccccc3)no2)c1 | 10.8 |
| CCc1ccc(C(=O)COC(=O)CNC(=O)c2ccco2)cc1 | -0.561 |
| COc1cc(CNCc2cccnc2)ccc1OCC(=O)NC1CCCCC1.Cl | 15.5 |
| COc1ccc(/C=N/n2c(N)nc3ccccc32)cc1OC | 6.11 |
| Cc1ccc(NC(=O)Cn2nc(-c3ccccc3)nc2-c2ccccc2)c(C)c1 | 15.7 |
| Cc1coc2c1c(C)cc1oc(=O)c(CC(=O)NCCCCCC(=O)O)c(C)c12 | 18.8 |
| C=CCOc1ccc(/C=C2\SC(=S)N(NS(=O)(=O)c3ccccc3)C2=O)cc1 | 14.6 |
| C=CCn1c(SCC(=O)Nc2sccc2C(N)=O)nc2sc(C)c(C)c2c1=O | 18.3 |
| Cc1cccc(-c2cc(C(=O)Nc3ccc4c(c3)OCCO4)c3ccccc3n2)c1 | -5.55 |
| CCC(=O)Nc1cccc(C(=O)OCC(=O)c2ccccc2Cl)c1 | -2.05 |

| Compound | hERG current change (%, negative = inhibition) at 1uM [%] |
| --- | --- |
| O=C1CC(c2ccccc2)CC(=O)C1Sc1ccc(Cl)cc1 (centres unmarked) | -6.9 |
| CCOc1ccc(C(=O)NC2CCN(C(=S)Nc3ccccc3C)CC2)cc1 | 17.1 |
| CCC(=O)N1CCc2cc(S(=O)(=O)NC(C(=O)NCc3ccc(F)cc3)C(C)C)ccc21 (centres unmarked) | 12.9 |
| O=C1N=C(c2ccccc2)S/C1=C\c1cccs1 | 11.2 |
| O=C(NN=C1CCCCCC1)c1ccncc1 | 15.9 |
| CCOC(=O)C1CCCN(C(=O)CN2C(=O)c3ccccc3C2=O)C1 (centres unmarked) | 4.34 |
| c1ccc(-c2nc(C3CCCCC3)c3sccc3n2)cc1 | 14.4 |
| CCn1c(SCc2c(Cl)cccc2Cl)nnc1-c1nn(-c2ccccc2)ccc1=O | -18.1 |
| Cc1ccc(C#N)c(SCc2cc3c(cc2Cl)OCO3)n1 | 17.4 |
| CCC1CCCCN1S(=O)(=O)c1ccc2[nH]c(=O)ccc2c1 (centres unmarked) | -20.1 |
| O=C(O)c1ccccc1-c1ccccc1C(=O)NCCc1ccccc1 | 7.84 |
| C=CCSc1nnc2c(n1)OC(c1c(C)[nH]n(-c3ccccc3)c1=O)Nc1ccccc1-2 (centres unmarked) | -3.51 |
| Cc1nnc2c3ccccc3c(-c3ccc(O)cc3)nn12 | 9.5 |
| CCCCC(=O)Nc1ccc2c(c1)OCCO2 | 18.4 |
| COc1ccc(C(=O)Nc2ccc(Cl)cc2C(=O)N2CCOCC2)cc1 | 6.51 |
| O=C(c1ccccc1)N1CCCCC(S(=O)(=O)c2ccccc2)C1=O (centres unmarked) | -0.735 |
| NC(=O)CSc1nc2cc3c(cc2c(=O)n1CCCC(=O)NCc1ccc2c(c1)OCO2)OCO3 | -22.4 |
| CC1CCCN(CC(=O)Nc2ccc(S(=O)(=O)N3CCCC3)cc2)C1 (centres unmarked) | 14 |
| Cn1nnnc1SCC(=O)Nc1ccc2c(c1)OCCO2 | 3.18 |
| CCOC(=O)N1CCC(NC(=O)c2cc(C(=O)NC3CCN(Cc4ccccc4)CC3)ccc2CO)CC1 | 13 |
| Nc1nnc(SCc2ccccc2)n1-c1ccccc1 | -12.8 |
| O=C(O)CCn1c(-c2ccccn2)nc2ccccc21 | 11.4 |
| O=C(Nc1ccc(Cl)cc1)C1C2C=CC3(O2)C1C(=O)N(CCN1CCCCC1)C3C(=O)NC1CCCCC1 (centres unmarked) | 4.31 |
